# The campaign covered roughly 230,000 compounds. About 3,600 (1.6%) were called active. Inconclusive means that the source gave no clear call. Such entries were picked first, then a sample of the others. Calls follow the shape of the dose curve; as a rule, active = well fitted inhibition curve with a large enough effect (not every such curve was filed as active); inconclusive = small, poorly fitted or top-dose-only effect, or another doubt; inactive = no such curve, though single readings can be large or run the other way. A potency beside an inconclusive call is a rough fit, not a confirmed value. More than one record can exist for a structure, and the calls need not agree.
# Target: Lysine-specific demethylase 4E (Homo sapiens) (UniProt B2RXH2)
# Sequence of UniProt B2RXH2 (B2RXH2 whole entry, looked up, the tested form may be a part): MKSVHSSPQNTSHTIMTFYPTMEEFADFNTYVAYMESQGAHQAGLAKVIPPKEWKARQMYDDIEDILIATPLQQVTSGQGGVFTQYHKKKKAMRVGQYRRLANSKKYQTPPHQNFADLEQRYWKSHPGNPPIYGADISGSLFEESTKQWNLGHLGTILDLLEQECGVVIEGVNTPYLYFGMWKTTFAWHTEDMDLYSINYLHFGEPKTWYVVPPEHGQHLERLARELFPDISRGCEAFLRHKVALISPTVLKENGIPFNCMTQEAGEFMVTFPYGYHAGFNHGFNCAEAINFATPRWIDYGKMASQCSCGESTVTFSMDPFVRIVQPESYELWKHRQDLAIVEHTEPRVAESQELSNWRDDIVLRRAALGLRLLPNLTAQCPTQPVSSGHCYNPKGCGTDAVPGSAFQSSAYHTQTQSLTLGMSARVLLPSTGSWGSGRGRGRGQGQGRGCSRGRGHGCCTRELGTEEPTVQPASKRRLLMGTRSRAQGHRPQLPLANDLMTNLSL
# Experiment: qHTS Assay for Inhibitors of Human Jumonji Domain Containing 2E (JMJD2E)
# Conditions: JMJD2E catalytic domain, FDH-coupled NADH fluorescence (FDH is formaldehyde dehydrogenase); series mostly up to 57.1 µM
# Also: nearly all actives have a fitted effect of over 50% in size.
# Potency is read from the fitted curve at half-maximal effect; tags tell the direction and shape of the fitted curve.
row,SMILES,Potency
1,CC1=C(C(=O)Nc2ccccc2C)C(c2cccs2)NC(=S)N1 (stereo not drawn),inactive
2,O=C(Nc1ccccc1)Nc1ccc(Br)c(Cl)c1,inactive
3,CC(C)CN=Cc1c(O)c([N+](=O)[O-])cc2oc3c(c12)CCCC3,active: 12.6 µM
4,CC1CC(OCC(O)C[N+]2(C)CCOCC2)CC(C)(C)C1 (stereo not drawn),inactive
5,CCN(CC)CCCn1c(-c2ccccc2)nc2c(N(CCOC)CCOC)nc(C)nc21,"inconclusive: 20 µM [inhibitor, partial curve]"
6,Clc1ccc2oc(-c3ccccn3)nc2c1,"inconclusive: 35.5 µM [inhibitor, partial curve]"
7,O=C(CCl)Nc1ccccc1C(=O)c1ccccc1,inactive
8,C=C(C)Cn1cnc2c(oc3nc4c(cc32)CCCC4)c1=O,"inconclusive: 14.1 µM [inhibitor, single point]"
9,O=C(Nc1cc(C(F)(F)F)cc(C(F)(F)F)c1)Nc1cnn(-c2ccc([N+](=O)[O-])cc2)c1C(F)(F)F,inactive
10,c1ccc(COc2ccc(OCCCCN3CCCCC3)cc2)cc1,"inconclusive: 25.1 µM [inhibitor, single point]"
11,Cc1cc([N+](=O)[O-])nn1CC(=O)N/N=C/c1ccc(O)cc1O,active: 12.6 µM
12,COc1cc(N=C2C(=O)N3CCCc4cccc2c43)cc(OC)c1,inactive
13,CCCCN1C(=O)Cc2c1nc(N)c1c(N)nc(N(CCC)CCC)c(C#N)c21,"inconclusive: 2.82 µM [inhibitor, partial curve]"
14,CCOC(=O)N1CCC(NC(=O)C2CCN(c3ccc(N4CCOCC4)nn3)CC2)CC1,"inconclusive: 8.91 µM [inhibitor, partial curve]"
15,c1cc2c3c(cccc3c1)NC1(CCC3(CC1)Nc1cccc4cccc(c14)N3)N2,"inconclusive: 31.6 µM [inhibitor, partial curve]"
16,O=C1C2CCCCC2C(=O)N1Cc1ccccc1 (stereo not drawn),inactive
17,Nc1nc(-c2ccccc2)cc(C(F)(F)F)n1,"inconclusive: 28.2 µM [inhibitor, partial curve]"
18,CC(C)c1nc2oc3c(NCc4cccnc4)ncnc3c2c2c1CCC2,"inconclusive: 14.1 µM [inhibitor, partial curve]"
19,N#Cc1nc(-c2ccco2)oc1N1CCN(Cc2ccccc2)CC1,"inconclusive: 28.2 µM [inhibitor, partial curve]"
20,COc1ccc2nc(SCC(=O)Nc3ccc4c(c3)CCC4)[nH]c2c1,inactive
21,Cc1cccc2nc(-c3ccccc3)nc(N3CCC(O)(c4ccc(Cl)cc4)CC3)c12,"inconclusive: 35.5 µM [inhibitor, single point]"
22,S=c1nc(-c2ccco2)[nH][nH]1,"inconclusive: 28.2 µM [inhibitor, single point]"
23,O=C(N/N=C/c1ccc(Cl)cc1)c1cc(-c2cccnc2)nc2ccccc12,"inconclusive: 28.2 µM [inhibitor, single point]"
24,COCCNC(=O)NC1(C(F)(F)F)Oc2ccc(Cl)cc2O1 (stereo not drawn),"inconclusive: 28.2 µM [inhibitor, single point]"

row,SMILES,Potency
1,COc1ccccc1-c1nc(C#N)c(N2CCN(C(c3ccccc3)c3ccccc3)CC2)o1,"inconclusive: 2.82 µM [inhibitor, full curve]"
2,COc1ccccc1/C=C/C=N/n1c(-c2ccccn2)n[nH]c1=S,"inconclusive: 39.8 µM [inhibitor, single point]"
3,CCOc1ccccc1NC(=O)CCCn1cc([N+](=O)[O-])cn1,inactive
4,Cc1cc(S(=O)(=O)N(Cc2ccccc2)Cc2ccc(N(C)C)cc2)ccc1-n1cnnn1,inactive
5,COC(=O)c1ccc(C(=O)OC)c(NC(=O)/C=C/C(=O)O)c1,"inconclusive: 31.6 µM [inhibitor, partial curve]"
6,O=C(NC1CCCCC1)n1c(=O)oc2ccccc21,inactive
7,Fc1cccc(-n2c(-c3cccs3)nc3nc4ccccc4nc32)c1,"inconclusive: 7.94 µM [inhibitor, full curve]"
8,CC(C)c1[nH]nc2c1C(c1ccco1)C(C#N)=C(N)O2 (stereo not drawn),"inconclusive: 39.8 µM [inhibitor, single point]"
9,C[C@@](Cc1ccc(O)c(O)c1)(NN)C(=O)O,active: 3.55 µM
10,C=CCN=C(NC#N)SCC(=O)NCc1ccccc1,"inconclusive: 39.8 µM [inhibitor, single point]"
11,COCCN(C(C)=O)c1nnc(-c2cnccn2)s1,"inconclusive: 31.6 µM [inhibitor, partial curve]"
12,CCn1nnnc1SCC(=O)NC1CCCC1,inactive
13,O=C1SC(SCc2ccccc2)=N/C1=C\c1ccco1,inactive
14,CC(C)c1nc2sc3c(NCc4ccco4)ncnc3c2c2c1COC(C)(C)C2,"inconclusive: 35.5 µM [inhibitor, single point]"
15,Cc1csc(/N=C/c2ccc([N+](=O)[O-])cc2)n1,"inconclusive: 28.2 µM [inhibitor, single point]"
16,COc1cc(NC(=O)CN2CCN(c3ccccc3F)CC2)cc(OC)c1,inactive
17,O=S(=O)(Nc1nc2ccccc2nc1Nc1cccc(S(=O)(=O)N2CCCCC2)c1)c1ccccc1,"inconclusive: 10 µM [inhibitor, partial curve]"
18,COc1ccc(Cn2nnnc2C(c2cc3cc(C)ccc3[nH]c2=O)N2CCOCC2)cc1 (stereo not drawn),"inconclusive: 31.6 µM [inhibitor, partial curve]"
19,COc1ccc(NC(=O)Nc2cccs2)cc1Cl,"inconclusive: 10 µM [inhibitor, partial curve]"
20,O=C(Nc1nnc(-c2ccccc2)o1)Nc1ccc(F)cc1F,"inconclusive: 28.2 µM [inhibitor, partial curve]"
21,CC(C)(C)c1cc(C(F)(F)F)c(C#N)c(=O)[nH]1,"inconclusive: 28.2 µM [inhibitor, partial curve]"
22,CCc1ccc(-c2nc(CN3CCC(C(=O)NCc4ccc(F)cc4)CC3)c(C)o2)cc1,inactive
23,Nc1ccc2nc[nH]c2c1,"inconclusive: 22.4 µM [inhibitor, single point]"
24,N#Cc1ccc(-c2ccc(Cl)cc2)nc1Oc1ccc(F)cc1,"inconclusive: 3.55 µM [inhibitor, full curve]"
